# Out of some 420,000 compounds screened, about 50,000 (12%) were called active. Inconclusive means that the source gave no clear call. Such entries were picked first, then a sample of the others. Calls come from the whole dose curve; as a rule, active = well fitted inhibition curve with a large enough effect; inconclusive = small, poorly fitted or top-dose-only effect; inactive = flat fitted curve, though single readings scatter. Potencies of inconclusive entries are left out as doubtful fits.
# Experiment: qHTS for Inhibitors of human tyrosyl-DNA phosphodiesterase 1 (TDP1): qHTS in cells in presence of CPT; note: nearly all actives have a fitted effect of over 55% in size
# Conditions: chicken DT40 Tdp1-/-;hTDP1 cells + 20 nM CPT, ATP luminescence, 48 h; activity change, negative = growth inhibition: at 46.2 µM (top of the series) unless noted
# Method in brief: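 Chicken DT40 Tdp1-/- cells complemented with human TDP1, 400 cells/well, exposed to compounds plus 20 nM camptothecin for at least 48 h at 37 C; viability read as ATP content by CellTiter-Glo luminescence.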
# % is set by controls: 0 for no effect and ±100 for the full control effect; potency is the fitted concentration of half-maximal effect; tags give direction and shape of the fitted curve.
SMILES,Potency,"activity change, negative = growth inhibition"
O=C(NC1CCCC1)C1CC(=O)N(c2ccc(F)cc2)C1 (stereo not given),inactive,
COc1ccc(CNC(=O)C2(CC3CC(c4ccccc4)=NO3)CCN(C(=O)c3cccc(O)c3)CC2)cc1 (stereo not given),"inconclusive [inhibitor, single point]",
Cc1ccc(N2CCCC2=O)cc1S(=O)(=O)N1CCOCC1,inactive,
CN1CCN(C(=O)c2ccc(F)c(F)c2)CC1,inactive,
O=C(Nc1ccc(OC(F)(F)F)cc1)c1cccc(-n2cnnn2)c1,"inconclusive [inhibitor, partial curve]",
Cc1ccccc1-c1cn(-c2ccccc2)c(=S)[nH]1,"inconclusive [inhibitor, single point]",
Cc1ccc(NC(=O)[C@H](NC(=O)[C@@H]2Cc3ccccc3CN2)c2ccccc2)cc1,inactive,
COc1ccccc1C/C(N)=N/OC(=O)COc1ccc2ccccc2c1,"inconclusive [inhibitor, partial curve]",
Cc1ccc(-c2cc(C#N)c(=O)n(Cc3c(Cl)cccc3Cl)c2)cc1,"inconclusive [inhibitor, single point]",
CC(C)CCNC(=O)CCn1c(=O)c2cccn2c2cccnc21,inactive,
Cc1ccc(NS(=O)(=O)c2ccc(OCC(=O)NCc3ccncc3)cc2)cc1,inactive,
CC(C)C[C@H]1CN(CCCC[C@H]2CNC(=O)C(=O)N2CCc2ccccc2)C(=O)C(=O)N1CC1CCCCC1,"inconclusive [inhibitor, single point]",
Cc1noc(C)c1COc1ccc(C(=O)Nc2ccccn2)cc1,,inconclusive: -30.8% [inhibitor]
CC1CCC2(CC1)NC(=O)N(CC(=O)Nc1cccc(S(=O)(=O)N3CCCCC3)c1)C2=O (stereo not given),"inconclusive [inhibitor, single point]",
O=C1c2ccccc2C(=O)N1CCC(c1ccccc1)c1ccco1 (stereo not given),"inconclusive [inhibitor, single point]",
CSCCC(NC(=O)COc1ccccc1)C(=O)OC(C)C(=O)Nc1ccccc1C (stereo not given),inactive,
CC(NC(=O)CN1C(=O)NC2(CCCCC2)C1=O)c1ccc(S(N)(=O)=O)cc1 (stereo not given),"inconclusive [inhibitor, single point]",
CCSc1nnc2c(n1)OC(c1ccc(C)s1)Nc1ccccc1-2 (stereo not given),"inconclusive [inhibitor, single point]",
CCc1cc(C(=O)NNC(=S)NC2CCCCC2)cs1,,inconclusive: -30% [inhibitor]
CCOc1ccc2nc(NC(=O)c3ccc(OC)c(S(=O)(=O)N4CCOCC4)c3)sc2c1,"inconclusive [inhibitor, single point]",
Cc1ccc(C(=O)NC(=S)Nc2ccc3c(c2)OCCO3)c(C)c1,"inconclusive [inhibitor, single point]",
Cc1cccc(NC(=O)c2ccc([N+](=O)[O-])o2)c1C,"inconclusive [inhibitor, single point]",
Cc1cc(C)n(-c2ccc(C(=O)N3CCN(S(=O)(=O)c4cccc(Br)c4)CC3)cc2)n1,active: 20.6 µM,

SMILES,Potency,"activity change, negative = growth inhibition"
COc1ccc(CCNC(=O)Cn2cc(S(=O)(=O)Cc3ccccc3Cl)c3ccccc32)cc1OC,"inconclusive [inhibitor, single point]",
Nc1c(C(=O)c2ccccc2)sc(Nc2ccccc2)c1S(=O)(=O)c1ccccc1,"inconclusive [inhibitor, single point]",
CCOc1ccccc1NC(=O)CSc1ncc(S(=O)(=O)c2ccc(C)c(C)c2)c(N)n1,"inconclusive [inhibitor, single point]",
Cc1nc2scc(-c3ccco3)c2c(=O)n1/N=C/N(C)C,"inconclusive [inhibitor, single point]",
COCCN1C(=O)CCC1(C)C(=O)NC(C)(C)C (stereo not given),inactive,
CCOC(=O)N1CC=C2C(C#N)=C(N)C(C#N)(C#N)[C@H](c3ccccc3OCC)[C@H]2C1,"inconclusive [inhibitor, single point]",
CCN(c1ccccc1)S(=O)(=O)c1ccc(OC)c(NC(=O)c2ccc(=O)[nH]c2)c1,inactive,
Cc1ccccc1C(=O)N1CCC(C(=O)NC2CCCCCC2)CC1,inactive,
COc1ccc(-c2csc(N(CCc3ccccc3)C(=O)COc3ccccc3)n2)cc1,"inconclusive [inhibitor, single point]",
Cc1nc2cc(NC(=O)Nc3ccc(Br)cc3)ccc2o1,"inconclusive [inhibitor, single point]",
CC(C)(C)c1ccc(C(=O)Nc2sc3c(c2C(=O)O)CCC3)cc1,"inconclusive [inhibitor, single point]",
O=C(CSc1nc2c([nH]c3ccccc32)c(=O)n1-c1ccccc1)Nc1ccc(Cl)c(Cl)c1,active: 8.2 µM,
CCc1nn(CC(=O)Nc2c(C)cccc2C)c(=O)c2cc3sccc3n12,inactive,
C=CCNC(=S)N1N=C(c2ccco2)CC1c1ccco1 (stereo not given),inactive,
CCCOC(=O)C(=O)NNc1ccccc1,inactive,
CCOc1ccc(/C(CC)=N/NC(=O)C2(C)CC2(Br)Br)cc1 (stereo not given),"inconclusive [inhibitor, partial curve]",
FC(F)Oc1ccc(NC(=S)NC23CC4CC(CC(C4)C2)C3)cc1,"inconclusive [inhibitor, single point]",
CC1=C(C(=O)Nc2ccccc2C(=O)N2CCN(c3ccccc3)CC2)SCCO1,"inconclusive [inhibitor, single point]",
COc1cc([N+](=O)[O-])ccc1NC(=O)c1cccc(NC(=O)C(C)C)c1,"inconclusive [inhibitor, single point]",
CNC(=O)c1c(NC(=O)Cc2coc3ccc(C)cc23)sc2c1CCCC2,"inconclusive [inhibitor, single point]",
O=c1[nH]c2cc3c(cc2cc1CN(CCO)S(=O)(=O)c1ccccc1)OCCO3,inactive,
Cc1cccc(C(=O)N2CCC(c3nc4ccccc4s3)CC2)c1,inactive,

# — PubChem BioAssay AID686979 (National Center for Advancing Translational Sciences (NCATS), 2013)
